Converted amounts (≈) assume the structure as drawn.
What was measured:
[1] = tested on: C. difficile ATCC BAA 1870; experiment: Time-kill kinetics study; conditions: 5 × MIC
[2] = tested on: C. difficile (ATCC 43255); experiment: Murine model of CDI; type: in vivo, C57BL/6 mice; conditions: oral gavage daily for 5 days, n = 5
C. difficile [3] = experiment: Minimum bactericidal concentration (MBC) assay; conditions: Clostridioides difficile
[4] = tested on: toxins (tcdA and tcdB) of C. difficile ATCC BAA 1870; experiment: Toxin inhibition assay (ELISA); type: cell-based, Clostridioides difficile
C. difficile [5] = experiment: In vitro susceptibility assay (MIC); conditions: for MIC: Clostridioides difficile
[6] = C. difficile Isolate 20100207, NR-49278
[7] = C. difficile Isolate 20100502, NR-49277
[8] = C. difficile Isolate 20110870, NR-49288
[9] = C. difficile Isolate 20110999, NR-49286
[10] = C. difficile Isolate 20120187, NR-49290
[11] = starting inoculum 3.5 × 10^6 cfu/ml

Row | Structure (SMILES) | MBC (C. difficile [3]; C. difficile I2, NR-13428) | MBC (C. difficile [3]; C. difficile I4, NR-13430) | MBC (C. difficile [3]; C. difficile I6, NR-13432) | MBC (C. difficile [3]; C. difficile I13, NR-13553) | MBC (C. difficile [3]; [6]) | MBC (C. difficile [3]; [7]) | MBC (C. difficile [3]; [8]) | MBC (C. difficile [3]; [9]) | MBC (C. difficile [3]; [10]) | MBC (C. difficile [3]; C. difficile P7, NR-32887) | MBC (C. difficile [3]; C. difficile P9, NR-32889) | MBC (C. difficile [3]; C. difficile P19, NR-32895) | MBC (C. difficile [3]; C. difficile P30, NR-32904) | reduction of toxin production ([4]; 0.25 × MIC) | MIC (C. difficile [5]; C. difficile I2, NR-13428) | MIC (C. difficile [5]; C. difficile I4, NR-13430) | MIC (C. difficile [5]; C. difficile I6, NR-13432) | MIC (C. difficile [5]; C. difficile I13, NR-13553) | MIC (C. difficile [5]; [7]) | MIC (C. difficile [5]; [9]) | further results
1 | CN[C@H](CC(C)C)C(=O)N[C@H]1C(=O)N[C@@H](CC(N)=O)C(=O)N[C@H]2C(=O)N[C@H]3C(=O)N[C@H](C(=O)N[C@H](C(=O)O)c4cc(O)cc(O)c4-c4cc3ccc4O)[C@H](O)c3ccc(c(Cl)c3)Oc3cc2cc(c3O[C@@H]2O[C@H](CO)[C@@H](O)[C@H](O)[C@H]2O[C@H]2C[C@](C)(N)[C@H](O)[C@H](C)O2)Oc2ccc(cc2Cl)[C@H]1O [Vancomycin] | 1 µg/mL (≈ 0.69 µM) | 1 µg/mL (≈ 0.69 µM) | 0.25 µg/mL (≈ 0.173 µM) | 0.25 µg/mL (≈ 0.173 µM) | 0.5 µg/mL (≈ 0.345 µM) | 0.25 µg/mL (≈ 0.173 µM) | 1 µg/mL (≈ 0.69 µM) | 0.25 µg/mL (≈ 0.173 µM) | 1 µg/mL (≈ 0.69 µM) | 0.5 µg/mL (≈ 0.345 µM) | 1 µg/mL (≈ 0.69 µM) | 2 µg/mL (≈ 1.38 µM) | 0.25 µg/mL (≈ 0.173 µM) | did not reduce toxin production | 1 µg/mL (≈ 0.69 µM) | 1 µg/mL (≈ 0.69 µM) | 0.25 µg/mL (≈ 0.173 µM) | 0.25 µg/mL (≈ 0.173 µM) | 0.25 µg/mL (≈ 0.173 µM) | 0.25 µg/mL (≈ 0.173 µM) | reduction in bacterial count by 24 h ([1]; 24 h, starting inoculum 3.5 × 10^6 cfu/ml): ~ 2.75 log10 CFU/ml; protection of infected mice (survival) ([2]; 10 mg/kg): ~100%; MIC (C. difficile [5]; [6]): 0.25 µg/mL (≈ 0.173 µM); MIC (C. difficile [5]; [8]): 1 µg/mL (≈ 0.69 µM); MIC (C. difficile [5]; [10]): 1 µg/mL (≈ 0.69 µM); MIC (C. difficile [5]; C. difficile P7, NR-32887): 0.5 µg/mL (≈ 0.345 µM); MIC (C. difficile [5]; C. difficile P9, NR-32889): 1 µg/mL (≈ 0.69 µM); MIC (C. difficile [5]; C. difficile P19, NR-32895): 1 µg/mL (≈ 0.69 µM); MIC (C. difficile [5]; C. difficile P30, NR-32904): 0.25 µg/mL (≈ 0.173 µM)
2 | CCc1c(Cl)c(O)c(Cl)c(O)c1C(=O)O[C@H]1[C@H](O)[C@H](OC)[C@H](OC/C2=C\C=C\C[C@H](O)/C(C)=C/[C@H](CC)[C@@H](O[C@@H]3OC(C)(C)[C@@H](OC(=O)C(C)C)[C@H](O)[C@@H]3O)/C(C)=C/C(C)=C/C[C@@H]([C@@H](C)O)OC2=O)O[C@@H]1C [Fidaxomicin] | 0.03 µg/mL (≈ 0.0284 µM) | 0.015 µg/mL (≈ 0.0142 µM) | 0.06 µg/mL (≈ 0.0567 µM) | 0.03 µg/mL (≈ 0.0284 µM) | – | 0.06 µg/mL (≈ 0.0567 µM) | – | 0.25 µg/mL (≈ 0.236 µM) | 0.06 µg/mL (≈ 0.0567 µM) | 0.03 µg/mL (≈ 0.0284 µM) | 0.03 µg/mL (≈ 0.0284 µM) | – | 0.06 µg/mL (≈ 0.0567 µM) | ~36% | 0.03 µg/mL (≈ 0.0284 µM) | 0.015 µg/mL (≈ 0.0142 µM) | 0.06 µg/mL (≈ 0.0567 µM) | 0.03 µg/mL (≈ 0.0284 µM) | 0.06 µg/mL (≈ 0.0567 µM) | 0.25 µg/mL (≈ 0.236 µM) | time to bactericidal activity (≥ -3log10 CFU/ml reduction in bacterial viability) [1, 11]: ≤ 8 h; MBC (C. difficile [3]; C. difficile P6, NR-32886): 0.03 µg/mL (≈ 0.0284 µM); reduction of toxin production ([4]; 0.5 × MIC): ~57%; MIC (C. difficile [5]; [10]): 0.06 µg/mL (≈ 0.0567 µM); MIC (C. difficile [5]; C. difficile P6, NR-32886): 0.03 µg/mL (≈ 0.0284 µM); MIC (C. difficile [5]; C. difficile P7, NR-32887): 0.03 µg/mL (≈ 0.0284 µM); MIC (C. difficile [5]; C. difficile P9, NR-32889): 0.03 µg/mL (≈ 0.0284 µM); MIC (C. difficile [5]; C. difficile P19, NR-32895): 0.03 µg/mL (≈ 0.0284 µM); MIC (C. difficile [5]; C. difficile P30, NR-32904): 0.06 µg/mL (≈ 0.0567 µM)
3 | CO[C@H]1[C@H](O)C[C@@H](O[C@@H]2C[C@H](Oc3cc4cc5c(c(O)c4c(O)c3C)C(=O)[C@@H](O[C@H]3C[C@H](O[C@H]4C[C@H](O[C@H]6C[C@@](C)(O)[C@@H](OC(=O)C(C)C)[C@H](C)O6)[C@H](O)[C@@H](C)O4)[C@H](O)[C@@H](C)O3)[C@H]([C@H](OC)C(=O)[C@@H](O)[C@@H](C)O)C5)O[C@H](C)[C@H]2OC(C)=O)O[C@@H]1C [NP-003875] | 0.03 µg/mL (≈ 0.0248 µM) | 0.03 µg/mL (≈ 0.0248 µM) | 0.03 µg/mL (≈ 0.0248 µM) | 0.03 µg/mL (≈ 0.0248 µM) | 0.06 µg/mL (≈ 0.0495 µM) | 0.03 µg/mL (≈ 0.0248 µM) | 0.03 µg/mL (≈ 0.0248 µM) | 0.03 µg/mL (≈ 0.0248 µM) | 0.03 µg/mL (≈ 0.0248 µM) | 0.03 µg/mL (≈ 0.0248 µM) | 0.015 µg/mL (≈ 0.0124 µM) | 0.015 µg/mL (≈ 0.0124 µM) | 0.015 µg/mL (≈ 0.0124 µM) | ~29% | – | – | – | – | – | – | killing kinetics compared to fidaxomicin ([1]; in words): comparable to that of fidaxomicin; time of exposure to reduce cell viability below the limit of detection (LOD) [1, 11]: ≤ 8 h; protection of infected mice (survival) ([2]; 5 mg/kg): 100%; MBC (C. difficile [3]; C. difficile P6, NR-32886): 0.03 µg/mL (≈ 0.0248 µM); reduction of toxin production ([4]; 0.5 × MIC): ~40%; fold lower MIC90 value compared to that of fidaxomicin (C. difficile [5]): 3 fold

Reference: PMC9359557, “Discovery of a novel natural product inhibitor of Clostridioides difficile with potent activity in vitro and in vivo” (PLoS ONE, 2022)
